54 sequences from publication PMC7819943, “Rice protein-binding microarrays: a tool to detect cis-acting elements near promoter regions in rice” can be followed below.

This is one part of the list.

In this test the target is T1, OsWOX13 (Oryza sativa, UniProt Q5QMM3 1-267).
T1 sequence: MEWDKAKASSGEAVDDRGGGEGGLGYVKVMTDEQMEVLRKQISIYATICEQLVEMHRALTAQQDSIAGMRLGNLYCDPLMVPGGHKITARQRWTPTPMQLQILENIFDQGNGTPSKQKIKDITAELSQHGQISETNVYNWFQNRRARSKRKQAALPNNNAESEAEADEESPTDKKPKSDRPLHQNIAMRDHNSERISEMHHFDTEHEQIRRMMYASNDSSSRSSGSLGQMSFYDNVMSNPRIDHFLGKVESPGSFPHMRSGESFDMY
Kind of test: protein-binding microarray (RPBM); PBS, 2% BSA, 51.3 ng/ul salmon testes DNA, 50 uM zinc acetate, 200 nM TF, 25 C, 1 h; high values mean tight binding. The settings on record: protein: recombinant; tags: N-terminal polyhistidine and DsRed monomer fusion (pET32a); label: CyDye5-dUTP incorporated in the synthesized complementary strand; 3' TTTTT single-stranded linker to array surface; dsDNA, one strand shown. Summed up: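 Polyhistidine-tagged DsRed fusions of transcription factors, joined at the N-terminus, were expressed in E. coli BL21-CodonPlus and isolated on Ni–NTA. They were incubated at 200 nM for 1 h at 25 °C on a custom Agilent array, double-stranded and BSA-blocked, in PBS with 2% BSA, salmon testes DNA and 50 µM zinc acetate. The binding signal is per-feature fluorescence intensity (arbitrary units) read on an Axon 4000B scanner after washing.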
Consider “TCTTAATTTTCTTGTGGACGTAAATAGCAGCCAGCTGACCCGGAGTCACCTAGTGCAG”, for which the binding signal was 12100 fluorescence intensity (a.u.).
Under “GCTAATTAAACCGAACAACCACCTCAGCTCTCGCCTGAGACGGAGTCACCTAGTGCAG” stands 21600 fluorescence intensity (a.u.); under “TGTTAATGAATCTAGATAGATATATCTATTTAGATTCATTCGGAGTCACCTAGTGCAG”, 9660 fluorescence intensity (a.u.); under “CTTTTAATTGAACCGTGCTAATAATATAGATATAAAAGTTCGGAGTCACCTAGTGCAG”, 4230 fluorescence intensity (a.u.).
For the sequence “ATATCTGATGATTTAAGTCCAGATGACATCCCTCCCACCGCGGAGTCACCTAGTGCAG”, the binding signal is 9130 fluorescence intensity (a.u.).
Under “CGATGACTCGTAATTTAATGTTTCATACCTCGCTTTATACCGGAGTCACCTAGTGCAG” stands 8520 fluorescence intensity (a.u.); under “TTATAACTGGCTTATAGTCTCTCGTAGACAACTTATGTTTCGGAGTCACCTAGTGCAG”, 3580 fluorescence intensity (a.u.); under “TATAATGTCACTAAATGAGGGGATGGGGAGTGGAAGCCTGCGGAGTCACCTAGTGCAG”, 6430 fluorescence intensity (a.u.).
For the sequence “GATATGATTATTTATTTCTTTAAATGAAAATCATGTGTAACGGAGTCACCTAGTGCAG”, the binding signal is 26000 fluorescence intensity (a.u.).
For “TTATTAGAATATTGATTGAAATTTTCAGCCTCCAAACAACCGGAGTCACCTAGTGCAG”, the binding signal is 16100 fluorescence intensity (a.u.).
Under “TTACAATTAACACTACTGTCTATGTCTCAATTCATACTATCGGAGTCACCTAGTGCAG” stands 3650 fluorescence intensity (a.u.); under “TTAGCACGTGATTAATTGATTATTAACTACTTAAAATTTTCGGAGTCACCTAGTGCAG”, 25800 fluorescence intensity (a.u.).
For “CAAGATTGTCAAGCACCGGCATCCTCGACTTATCGACGTGCGGAGTCACCTAGTGCAG”, the binding signal was 4510 fluorescence intensity (a.u.).
Under “TTTTGACCGTGGTTAATTTGCCACGTTAGCTAATGCCATTCGGAGTCACCTAGTGCAG” stands 11200 fluorescence intensity (a.u.).
Under “TCATTCTAATTATTTGATATTAGGTCTTATATATAGATTTCGGAGTCACCTAGTGCAG” stands 5560 fluorescence intensity (a.u.).
Under “TGTGATTGGTGCCACCTCCTCCTCCTCTGCCTCTCTCCTCCGGAGTCACCTAGTGCAG” stands 30100 fluorescence intensity (a.u.); under “TTAAAATTTCAGTTGATTAAAACTACGTACTAACTGGTCGCGGAGTCACCTAGTGCAG”, 27600 fluorescence intensity (a.u.).
Turning to “AACCCATAAATTATGTTTTAATTAATTCGTTTATATTATCCGGAGTCACCTAGTGCAG”, the binding signal is 20000 fluorescence intensity (a.u.).
Next, “CTGTTTTAATTGGAGCCCACCCGTTTCGGCTATCTCCTCCCGGAGTCACCTAGTGCAG”: 30700 fluorescence intensity (a.u.); “GCACGAGAAACTGGGTTAAATTGACAAGGGTATAATTGGACGGAGTCACCTAGTGCAG”: 24900 fluorescence intensity (a.u.).
Next, “CTGGAATGAGATTCAATCATTTTGGAGTTGACAATCCCAACGGAGTCACCTAGTGCAG”: 15700 fluorescence intensity (a.u.); “CACTAAGTTAATTAGGACCGGAGTTATCCAAATCCAGATACGGAGTCACCTAGTGCAG”: 10100 fluorescence intensity (a.u.).
Regarding “CTCGCCGTCCATCCTTCCCTGCGTCCAATCCCCACCCTCCCGGAGTCACCTAGTGCAG”, the binding signal is 60200 fluorescence intensity (a.u.).
Next, “CAGGATTGATTCCCACTCACTGCCTGATAGCAGGCTTGGCCGGAGTCACCTAGTGCAG”: 47200 fluorescence intensity (a.u.); “TGGAACGTATATATGATTGTCATTGACTGACGACACAATCCGGAGTCACCTAGTGCAG”: 26600 fluorescence intensity (a.u.); “TCATGCATTACAATTGATCATATTGTACCCCAATTTACAACGGAGTCACCTAGTGCAG”: 3780 fluorescence intensity (a.u.).
Next, “TTTCATTCTAATTAAATTAGATAGACGGACATCATTAGTCCGGAGTCACCTAGTGCAG”: 34400 fluorescence intensity (a.u.); “AGTTTGTGATTGTAATGTTGTGCTACACTGTCCTTATCTTCGGAGTCACCTAGTGCAG”: 17600 fluorescence intensity (a.u.); “TTTTAGTTCAGTTAGTGCAATTAATTCACCTGTGGCGACGCGGAGTCACCTAGTGCAG”: 4930 fluorescence intensity (a.u.).
For the sequence “TTGCTATAAATCTGAACACATAATTATTTTGATTCATAGCCGGAGTCACCTAGTGCAG”, the binding signal is 4890 fluorescence intensity (a.u.).
Under “ACCAATTCTGCCAATCATGAAGTTCAGTTCCGATGAAGAACGGAGTCACCTAGTGCAG” stands 10500 fluorescence intensity (a.u.).
Regarding “AAGATGATAGACTAGACGATCTAAATTAGAAGCCTCACATCGGAGTCACCTAGTGCAG”, the binding signal was 35200 fluorescence intensity (a.u.).
Next, “GCAAGTAAATTGACATTCCTGCCCCTCCTCTTCCGTCCTACGGAGTCACCTAGTGCAG”: 38400 fluorescence intensity (a.u.).
Next, “TCAGAAATAACATATCACTGATTTATAAACTCTCTCTATCCGGAGTCACCTAGTGCAG”: 4440 fluorescence intensity (a.u.).
Next, “TTGATAATTACTAGTTACTATATAGACAAATATATGAATACGGAGTCACCTAGTGCAG”: 6320 fluorescence intensity (a.u.); “GCCTAATTGCTTAATTAGCAGCCAACGGATTCGATTGATCCGGAGTCACCTAGTGCAG”: 53900 fluorescence intensity (a.u.).
As to “TCCAGATTTAAATCCGAATTACACATCACATAACTTGAACCGGAGTCACCTAGTGCAG”, the binding signal is 10100 fluorescence intensity (a.u.).
Under “ATCATAATTTCAACTTGTTGAACATACAGATTACCTGCTTCGGAGTCACCTAGTGCAG” stands 7020 fluorescence intensity (a.u.).
Under “ACACACTAATCACGATTAGCCTAACAAAACTCACGTACATCGGAGTCACCTAGTGCAG” stands 20600 fluorescence intensity (a.u.); under “ACAATTTGTCACCTTAATCACAAGCTAACCACGCATGGCCCGGAGTCACCTAGTGCAG”, 4310 fluorescence intensity (a.u.).
Under “ACGGATTAATTAGGTTTAATAAATTCGTCTCGTAGTTTCTCGGAGTCACCTAGTGCAG” stands 22800 fluorescence intensity (a.u.); under “AGTCTGTAATATAATTTAATCTAGAATTTAATAAAATGGACGGAGTCACCTAGTGCAG”, 10300 fluorescence intensity (a.u.); under “AATAAATCATTACTGTATGATTAACCAAGTATTAATTATTCGGAGTCACCTAGTGCAG”, 14200 fluorescence intensity (a.u.).
Consider “GATTAATTTAGCTCTGCCTCCAGAAATTTCATCTCCTCTTCGGAGTCACCTAGTGCAG”, for which the binding signal is 8010 fluorescence intensity (a.u.).
Under “TTACTGATAGACCTCATTTGAATGCAAGACAATGGTAGGCCGGAGTCACCTAGTGCAG” stands 6280 fluorescence intensity (a.u.).
Under “ACTCCTTTTCCAACCTGTTAATGGGCCTGACTGGGCCTGACGGAGTCACCTAGTGCAG” stands 3190 fluorescence intensity (a.u.).
Consider “ATGATTGTGAGTGGACCAAATTATACTTACCGAGCATTAACGGAGTCACCTAGTGCAG”, for which the binding signal was 28600 fluorescence intensity (a.u.).
Next, “GTCATTGTTGTGAATTGACTGCTGCTGTTTACTTACAGGACGGAGTCACCTAGTGCAG”: 3520 fluorescence intensity (a.u.); “ATTAAGTCAAATACTCTAATTAACCATAAATATAAGCACTCGGAGTCACCTAGTGCAG”: 3800 fluorescence intensity (a.u.).
On to “CCTGTTGATTGGTTAGCCCAGCCCATGATGTAGCCCATGACGGAGTCACCTAGTGCAG”, for which the binding signal is 38200 fluorescence intensity (a.u.).
Under “ATATAAATGTAAATTTTAAATTTATTTTATCTAATACTTACGGAGTCACCTAGTGCAG” stands 9130 fluorescence intensity (a.u.); under “TACTAGATTGAGGTGGTTAGTGACTCTAGGATCACCGCAACGGAGTCACCTAGTGCAG”, 18000 fluorescence intensity (a.u.); under “ATGTCCCAATTAATTTAACGGTTTCTACTGTAAATTAATGCGGAGTCACCTAGTGCAG”, 15200 fluorescence intensity (a.u.).
Under “ACATGGGTTAATTACTTCCTTGTCTAGCCATACGGGGAAACGGAGTCACCTAGTGCAG” stands 4360 fluorescence intensity (a.u.).
